The source gives no read counts; variants with many changes may rest on few reads.

Our source for the self-cleavage values is the RNAGym collection of RNA variant scans (doi:10.1093/nar/gkz1192).

B1: CPEB3 Ribozyme (parent)
chain: UAACAGGGGGCCACAGCAGAAGCGUUCACGUCGCAGCCCCUGUCAGAUUCUGGUGAAUCUGCGAAUUCUGCUGUAUAUCUC

This data set covers variants of B1. The data set is described as follows: self-cleavage, relative activity (ratio to wild type); higher = more cleavage; in vitro, sequencing. The essentials:
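After error-prone PCR and barcoding, CPEB3 ribozyme mutant libraries were transcribed with T7 RNA polymerase at 37°C for 5 hours, then given 15 min with DNase I before an EDTA stop, and they cleaved during both steps. Reverse transcription with template switching preceded Illumina sequencing. Relative activity divides a variant's cleaved/total read fraction by the unmutated ribozyme's. At least 5 reads were required per variant, and three batches were averaged.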
On to UAGCAGGGGGCCACAGCAGAAGCGUUCAGGUCGCAGCCCCUGUCAGAUUCUGGCGAAUCUGCGAAUCCUGCUGUAUAUCUC, for which the self-cleavage came to 0.13.

For UAGCAGGGGGCCACAGCAGAAGCGUUCACGUCGCAGCCCCUGUCAGAUUCUGGUGAAUUUGCGAAUUCUACGGUAUAUCUC, the self-cleavage came out at 0.17.

Regarding UAGCAGGGGGCUACAGCAGAAGCGCUCACGUCGCAGCCCCAGUCAGAUUCAGGUGAAUCUGCGAAUUCUGCCGUAUAUCUC, the self-cleavage is 0.3.

Turning to UAGCAGGGGGCCACAGCAGAAGCGUUCACGUCGCAGCCUCUGUCAGGUUCUGGUGAAUCUGCGAAUUCUGCUGUAUAUCUC, the self-cleavage was 0.73.

Turning to UAGCAGGGGGCCAAAGCAGAAGCGUUCACGUCGCAGCCCGUGCCAGAUUCUGGUGAAUCUGCGAACUCUGCUGUAUAUCCC, the self-cleavage was 0.07.

Consider UAGCAGGGGGCCACAGCAGAAGUGUUCACGUCGCAGCCCCCGUCAGAUUCUGGUGAAUCUGCGAAUUCAGCUGUAUAUCUC, for which the self-cleavage turned out to be 0.33.

With UAGCAAGGGGCCACAGCGGAAGCGUUCACGUCGCAGCCCCUGUCAGAUUCUGGUAAAUCUGCGAAUCCAGCUGUAUAUCUC, the self-cleavage is 0.05.

As to UAGCAGGGGGCCACAGCAGAAGCGUUCACGUCGCAGCCCCUGUCAGAUUCUGGUGAAUCUGCGAAUUUUGCUGUACAUCUC, the self-cleavage was determined as 1.11.

Turning to UAGCAGGGGGCCAUAGCAGAGGCGUUCACGUCGCAGCCCCUGUCGGAUUCUGGUGAAACUGCGAAUUCUGCUGUAUAUCUC, the self-cleavage is 0.11.

Take UAGCAAAGGGCCACAGCAGAAGCGUCCGCGUCGCAGCCCCUGUCAGAUUCUGGUGAAUCUGCGAAUUCUGCUGUAUAUCUC: the self-cleavage was 0.4.

On to UAGCAGGGGGCCAAAGCAGAAGCGUUCACGUCGCACCCCCAGUCAGAUUCUGUUGAAUCUGUGAAGUCUGCUGUAUAUCUC, for which the self-cleavage is 0.17.

For the variant UAGCAGGGGGCCACAGUAGAAGCGUUCACGUCGCGGCCCCUGUCAGAUUCUGGUGAAUCUGCGAAUUCUGCUGUACAUCUC, the self-cleavage is 1.05.

On to UAGCAGGGGGCCACAGGGGAAGCGUUCACGUCGCAGCCCCUGUCGGAUUCUGGUGUAUCUGCGAAUUCUGCUGUAUGUCUC, for which the self-cleavage amounted to 0.07.

As to UAGCAGGGGGCCACAGCAGAAGUGAUCUCGUCGCAGCCCCUGUCAGAUUCUGGUGAAUCAGCGAAUUCUGCUGUAUAUCUC, the self-cleavage worked out at 0.07.

Turning to UAGCAGGGGGCCACAGCAGAAGCGUUCACGUCGCAGCCCAUGACAGAUUCUGGUGUAUCUGCGAAUUCUGCUGUAUAUCUC, the self-cleavage is 0.09.

For UAGCAGGGGGCCACAGUAGAAGCGUUCACGUCGCGGCCCCUGUCAGAUUCUGGUGAAUCUGCGGAUUCUGCUGUAUAUCUC, the self-cleavage was 0.69.

Take UAGCAGGGGGCCACAGGAGAACCGUUCACGUCGCAGCCCCUGUCAGAUUCUGGUGAAUCUGCGAAUUCAGCUGUAUAUCUC: the self-cleavage stood at 0.1.

As to UAGCAGGGGGCCACAGCAGAAGCGUUCACGUCGCAGCCCACGUCAGAUUCUGGUGAAUCUGCGAAUUCUGCUGUAUAUCUC, the self-cleavage was determined as 0.1.

For the variant UAGCAGGGGGCUACAGCAGAAGCGUUCACGUCGCAGCCCCCGUCAGAUUCUGGUGAAUCUGCGAAGUCUGCUGUAUAACUC, the self-cleavage amounted to 0.92.

As to UAGCAGGGGGCCACAGUAGACGCGUUCACGCCGCGGCCCCUGUCAGAUUCUGGAGAAUCUGCGAAUUCUGCUGUAUAUCUC, the self-cleavage is 0.12.

Take UAGCAGGGGGCCACAGCAGAAGCGUUUACGUCGCAGCCCCUGUCAGAUUCUGGUGAGUCUGCGAAUUCUGCUGUAUAUCUC: the self-cleavage turned out to be 0.41.

On to UAGCAGGGGGCCACAGUAGAAGCGUUCACGUCGCAGCCCCCGUCAGAUUCUGGUGAAUCUGCGGAUUCUGCUGUAUAUCUC, for which the self-cleavage amounted to 0.32.

Consider UAGCAGGGGGCCACAGCAGAAGCGUUCACGUCGCAGCCUCUGUCAGAUUCUGGUGAAUCUGCGUAUUCUGCUGUAUAUCUA, for which the self-cleavage is 0.12.

As for UAGCAGGGGGCCACAGCAGAAGUGUUCUCGUCGCAGGCCCUGUCAGAUUCUGGUGAAUCUGCGAAUUCUGCUGUAUAUCUC, the self-cleavage came out at 0.21.

As for UAGCAGGGGGCCAUAGCAGGAGCGCUCACGUCGCAGCCCCUGUCAGAUUCUGGUGAAUCUGCGAGUUCUGCUGUAUAUCUC, the self-cleavage is 0.1.

On to UAGCAGGGGGCCACAGCAGAAGCGUUCACGUCGCAGUCCCCGUCGGAUUCUGGUGAAUCUGCAAAUUCUGCUGUAUAUCUC, for which the self-cleavage was determined as 0.51.

In the case of UAGCAGGGGGCCACAGCAGAAGCGUUCACGUAGCAGCCACUGUCAGAUUCUGGUGAAUCCGCGAAUCCUGCUGUAUACCUC, the self-cleavage is 0.09.

Turning to UAGCAGGGGGCCACAGCAGAAGCGUUCACGUUGCAGCCCCGGUCAGAUUCUGGUGAAUCUGCGAAUUCUGCUGUAUAUCUC, the self-cleavage was 0.1.

As to UAGCAGGGGGCCAUAGCAGAAGCGUUCACGUCGCAGCCCCUGUCAGAUUCAGGUGGAUCUGCGAAUUCUGCUGUAUAUCUC, the self-cleavage was determined as 0.92.

On to UAGCAAGGGGCCACAGCAGAAGCGUUCACGUCGCAGCCCCUGUCAGAUUCUGGUGAAUCUGCGAAUUCUGCUGUAUAUCCC, for which the self-cleavage is 0.56.

Turning to UAGCAGGGGGCCACAGCAGAAGCGUUCACGUCGCAGCCCCUGUUAGACUCUGGUGAAUCUGCGAAUUCUGCUGUAUAUCCC, the self-cleavage is 0.13.

In the case of UAGCAGGGGGCCACAGCAGAAGCGUUCACGUCGCAGCCCCUGUUAGAUUCUGGUGAAUCUGCGAACUCUGCUGUAUAUCUC, the self-cleavage was determined as 0.4.

As to UAGCAUGGGGCCUCAGCAGAAGCGUUCACGUCGCGGCCCCUGUCAGAUUCUGGUGAAUCUGCGAAUCCUGCUGAAUAUCUC, the self-cleavage worked out at 0.25.

On to UAGCAAGGGGCCACCGCAGAAGCGUUCACGUCGCAGCCCCUGUCAGAUUCUGGUGAAUCUGCGGAUUCUGCUGUAUAUCUC, for which the self-cleavage was 0.6.

With UAGCAGGGGGCCAUAGCGGAAGCGUUCACGUCGCAGCCCCUGUCAGAUUCUGGUGAAUCUGCGAAUUCUGCUGUAUAUCUC, the self-cleavage came to 0.88.

For UAGCAGGGGGCCACAGCAGAAGUGUUCACGUCGCAGCCCCUGACAGAUUCUGGCGAAUCUGCGUAUUCAGCUGUAUAUCUU, the self-cleavage was 0.08.

As to UAGCAGGGGGCCACAGCAGAAGCGUUCAUGUCGCAGCCCCCGUCAGAUUCUGGUGAAUCUGCGAAACCUGCUGCAUAUCUC, the self-cleavage came out at 0.13.

Take UAGCAGGGGGCCACAGCAGAAGCGUUCAUGUCGCAGCCCCUGCCAGAUUCUGGUGAGUCCGCGGAUUCUGCUGUAUAUCUC: the self-cleavage was 0.07.

On to UAGCAGGGGGCCACAGCAGAAGAGCUCACGUCGCAGCCCCUGUCAGAUUCUGGUGAAUCUGCGAACUCUGCUGUAUAUCUC, for which the self-cleavage stood at 0.22.

As for UAGCAGGGGGCCACAGGAGAAGCGCUCAAGUCGCAGCCCCUGUCAGAUUCAGGUGAAUCUGCGAACUCUGCUGUAUAUCUC, the self-cleavage is 0.08.

Turning to UAGCAGGGGGCCACAGUAGAAGCGUUCACGUCGCGGCCCCUGUCAGAUUCUGGUGAAACUGCGAAUUCUGCUGUAUAUCUC, the self-cleavage worked out at 0.98.

With UAGCAAGGGGCCACAGCAGAAGCGCUCACGGCGCAGCCCCUGUCAGAUCCUGGUGAAUCUGCGAAUUCUGACGUAUAUCUC, the self-cleavage was 0.13.

In the case of UAGCAGGGGGCCACAGCAGAAGUGUUCACGUCGCAGCCCCUGUCAGAUUCUGGUGAAUCUGCGAAUUCUGCUGUAUCUCUC, the self-cleavage amounted to 0.2.

On to UAGCAGGGGGCCACAGCAGAAGCGUUCACGUCGCAGCGCCUGUCAGAUUCCGGCGAAUCUGCGAAUUCAGCUGUUUAUCUC, for which the self-cleavage amounted to 0.25.

Take UAGCAGGGGGCCACAGCAGAAGCGUUCAUGUUGCAGCCCCUGUCAGAUUCUGGUGAAUCUGCGAAUUCUGCUGUAUAUCUC: the self-cleavage amounted to 0.12.

Turning to UAGCAGGGGGCCACAGCAGAAGCGUUCACGUCGCAGCCCCUGUCAGAUUGUGGUGAACCUGCGAAUUCUGCUGUAUAUCUC, the self-cleavage is 0.3.

Consider UAGCAGGGGGCCACAGCAGAAGAGUUCACGUCGCAGCCCCUGUCAGAUUCUGGUGAAUCUGCGUAUUCUGCUGUAUAUCUC, for which the self-cleavage turned out to be 0.08.

UAGCAGGGGGCCACAGCAGAAGCGUUCACGUCGCAGCCCCUGUCAGAUUCUGGUGAAUCUGAUAAUUCUGCUGUAUAUCUC: the self-cleavage worked out at 0.54.

Consider UAGCAGGGGGCCACAGCAGAAGGGUUCACGUCGCAGCCCCCGUCAGACUCUGGUGAAUCUGCGAAUUCUGCUGUAUACCUC, for which the self-cleavage stood at 0.07.

In the case of UAGCAGGGGGCUACAGCAGAAGCGUUCACGCCGUAGCCCCUGUCAGAUUCUGGUGGAACUGCGAAAUCUGCUGUAUAUCUC, the self-cleavage was found to be 0.04.

With UAGCAGGGGGCCACAGCAGAAGCGUUUACGUCGCAGCCCCUGUCAGAUUCUGGCGAAUCUGCGAAUUCUGCUGUAUACCUC, the self-cleavage was determined as 0.11.

Regarding UAGCAGGGGGCCACAGCAGAAGCGUUCACGUCGCAGCACCGGUCUGAUUCUGGUGAAUCUGCGAAUCCUGCUGUAUAUCUC, the self-cleavage worked out at 0.22.

For UAGCAAGGGGCCACAGCAGAAGCGUCCACGUCGCAGCCCCUGUCAGAUUCUGGUGAAUCUGCGAAUUCUGCUGUAUAUCUC, the self-cleavage came out at 0.4.

For UAGCAGGGGGCCACAGCAGAAGCGUUGACGUCGCAGCCCCCGUCAGAUUCUGGAGAAUCUGCGACUUCCGGUGUAUAUCUC, the self-cleavage was 0.14.

In the case of UAGCAGGGGGCCAUAGCACAAGCGUUCACGUCGCAGCCCCUGUCAGAUUCUGGUGAAUCUGCGAAUUCUGCUGUACAACUC, the self-cleavage was determined as 0.49.

With UAGCAGGGGGCCACAGCAGAAGUGUUCACGUCGCAGCCCCUGUCAGAUUCUGGGGAAUCUGCGAAUUCUGCUGUAUAUCUC, the self-cleavage came out at 0.5.

For UAGCAGGGGGCCACAGUAGAAGCGUUCACGUCGCAGCCCCUGUCAGAUACUGGUGAACCUGUGAAUUCUGCUGUAUGUCUC, the self-cleavage was found to be 0.11.

With UAGCAAGGGGCCACAGCAGAAGCGUUCACGUUGCAGCCCCUGUCAGAUUCUGGUGAAUCAGCGAAUCCUGCUGUAUAUCUC, the self-cleavage came out at 0.08.

UAGCAGGGGGCCACAGCAGAAGUGUUCACGACGCAGCCCCCGUCAGAUUCUGGUGAAUCUGCGAAUUCUGCUGUACAUCUC: the self-cleavage was found to be 0.65.

On to UAGCAGGGGGCCACAGCAGAAGCGUUCACGUCGCAGCCCCUGUUGGAUUCUGGUGAAUCUGCGAAUUCAGCUGUAUAUCUC, for which the self-cleavage turned out to be 0.35.

Regarding UAGCAGGGGGCCACAGAAGAAGCGUUCACGUCGCAGCCCCUAUCUGAUUCUGGUGAAUCUGCGAAUUCUGCUGUAUAUCUC, the self-cleavage was 0.19.

Take UAGCAGGGGGCCACAGCAGAAGCGUUAACGUCGCAGCCCCUGUCAGAUUCUGGUGAAUCUGCGAAUUCUGCUGUACAUCUC: the self-cleavage worked out at 0.44.

For UAGCAGGGGGCUACAGCAGAAGCGUUCACGUCGCAGCCCCUGUCAGAUCCUGGUGAAUCUGCGAAUUCCGCUGUAUAUCUC, the self-cleavage was determined as 0.31.

Take UAGCAGGGGGCCACAGCAGAAGCGUUCACGUCGGAGCCCCCGUCAGAUUCUGGUUAAUCUGCGGAUUCUGCUGUAUACCUC: the self-cleavage stood at 0.1.

In the case of UAGCAGGGGGCCACAGCAGAAGCGUUUACGUCGCAGCCCCUGUCAGAUUCUGGUGAAUCUGCGUAUUCUGCUGUAUAUCUC, the self-cleavage amounted to 0.4.

As for UAGCAGGGGGCCACAGCAGAAGCGUUCACGUUGCAGCCCCUGUCAGAUUCCGGCGAAUCUGCGUAUUCUGCUGUAUAUCCC, the self-cleavage stood at 0.18.

As to UAGCAGGGGGCCACAGCAGAAGCGUUCAUGUCGCAGCCCCUGUCAGGUUCUGGUGAGUCUGCGAAUUCUGCUGUAUAUCUC, the self-cleavage was 0.38.

Take UAGCAGGGGGCCACAGCAGAAGAGUUCACGUCGCAGCCCCUGUCAGAUUCUGGUGAGUCUGCGAAUUCUGCUGUAUAUCUC: the self-cleavage turned out to be 0.2.
